Measurements from patent US10913888B2, “Nanotube mediation of degradative chemicals for oil-field application” (MOLECULAR REBAR DESIGN, LLC, priority 2016, dated 2021).

Assay: Niacin association with carbon nanotubes by UV-vis absorption of the supernatant

With `O=C(O)c1cccnc1` [niacin] the “time after which amount of niacin in solution stabilizes” value (Example 8, hourly aliquots) was 6 h, the “niacin associated with each gram of carbon nanotubes” value (Example 8, no PVOH, 0.231 grams niacin/gram of carbon nanotube in 25 ml water, 20 hours after mixing) was 0.0746 g niacin/g CNT and the “total amount of niacin absorbed” value (Example 9, with PVOH, 0.0535 g nanotubes, 0.0139 g niacin) was 0.003 grams.
